The record followed here is publication PMC11995724, “Antibiotic target discovery by integrated phenotypic and activity-based profiling of electrophilic fragments” (Cell chemical biology, 2025).

Molecules are shown by their SMILES. Hit rate of the full screen: of about 3,200 compounds, about 75 (2%) showed an effect of 50% or more. The list shows a part of the results.

The subject of the assay is T1, S. aureus MSSA476.
T1 construct: MSSA476
Also on record: species or system S. aureus MSSA476 (TSB) or V. cholerae SAD30 (LB); 384-well bacterial growth screen at 25 uM, OD600 relative to DMSO control. The note with it: relative growth, OD600, TSB; 25 µM; inhibitor.
For the molecule `Cn1cc(C(=O)CCl)cc1C(=O)C(Cl)(Cl)Cl` [10-N22, 2,2,2-trichloro-1-[4-(2-chloroacetyl)-1-methyl-1H-pyrrol-2-yl]ethan-1-one], the “% of control remaining” value is 99.0625%. In the case of `Cl.O=C(CCl)NCC(c1ccccc1Cl)N1CCCC1` (centres unmarked) [6-G17, 2-chloro-N-[2-(2-chlorophenyl)-2-(pyrrolidin-1-yl)ethyl]acetamide hydrochloride], the “% of control remaining” value amounted to 101.415%.

As for `CC(NC(=O)C(C#N)=Cc1ccccc1)C12CC3CC(CC(C3)C1)C2` (centres unmarked) [8-N20, N-[1-(adamantan-1-yl)ethyl]-2-cyano-3-phenylprop-2-enamide], the “% of control remaining” value was found to be 98.2573%. As to `O=S(=O)(CC=C(Cl)Cl)N1CCSSCC1` [10-P19, 5-(3,3-dichloroprop-2-ene-1-sulfonyl)-1,2,5-dithiazepane], the “% of control remaining” value came to 108.75%. For `Cc1cc(C(=O)C(C)Cl)c(C)n1Cc1ccco1` (centres unmarked) [10-E06, 2-chloro-1-{1-[(furan-2-yl)methyl]-2,5-dimethyl-1H-pyrrol-3-yl}propan-1-one], the “% of control remaining” value is listed as 106.25%. The value for `CC(C)C(NC(=O)CCl)c1ccccc1` (centres unmarked) [4-K11, 2-chloro-N-(2-methyl-1-phenylpropyl)acetamide] was 106.717%; that for `C=CC(=O)Nc1cc(C)cc(S(C)(=O)=O)c1` [3-F14, N-(3-methanesulfonyl-5-methylphenyl)prop-2-enamide] was 108.663%. As for `Cn1cc(C=C(C#N)C(=O)Nc2ccc(Oc3ccccc3)cc2)cn1` [9-M10, 2-cyano-3-(1-methyl-1H-pyrazol-4-yl)-N-(4-phenoxyphenyl)prop-2-enamide], the figure is 94.0824%; as for `CC(Cl)C(=O)NCc1cnn2ccccc12` (centres unmarked) [7-M13, 2-chloro-N-({pyrazolo[1,5-a]pyridin-3-yl}methyl)propanamide], 91.9937%. As to `COc1ccccc1NC(=O)C(C#N)=Cc1ccco1` [8-H08, 2-cyano-3-(furan-2-yl)-N-(2-methoxyphenyl)prop-2-enamide], the “% of control remaining” value is given as 91.9502%. The value for `N#CC(=Cc1ccc(Cl)c([N+](=O)[O-])c1)C(=O)N1CCCC1` [9-N05, 3-(4-chloro-3-nitrophenyl)-2-(pyrrolidine-1-carbonyl)prop-2-enenitrile] was 107.566%; that for `C=CC(=O)N1CCC(C(=O)N2CCC(C(=O)NCC(C)C)CC2)CC1` [3-C17, N-(2-methylpropyl)-1-[1-(prop-2-enoyl)piperidine-4-carbonyl]piperidine-4-carboxamide] was 96.4737%; that for `N#CC(=Cc1ccco1)C(=O)NS(=O)(=O)N1CCc2ccccc21` [9-J18, 2-cyano-N-(2,3-dihydro-1H-indole-1-sulfonyl)-3-(furan-2-yl)prop-2-enamide] was 71.0112%.

Consider `C=CC(=O)NCc1nc(C2CC2)cs1` [2-A19, N-[(4-cyclopropyl-1,3-thiazol-2-yl)methyl]prop-2-enamide], for which the “% of control remaining” value came out at 138.207%.

Turning to `C=CC(=O)NCC(C)c1ncc(C)s1` (centres unmarked) [1-P10, N-[2-(5-methyl-1,3-thiazol-2-yl)propyl]prop-2-enamide], the “% of control remaining” value amounted to 101.626%. For `COCC1(NC(=O)C(C)Cl)CC=CCC1` (centres unmarked) [6-J13, 2-chloro-N-[1-(methoxymethyl)cyclohex-3-en-1-yl]propanamide], the “% of control remaining” value is 98.6829%.

In the case of `O=C(CCl)Cc1cccc(Cl)c1` [10-E17, 1-chloro-3-(3-chlorophenyl)propan-2-one], the “% of control remaining” value worked out at 119.375%. As for `C=CC(=O)N1CCCCC1c1nc2ccccc2n1C` (centres unmarked) [3-F04, 1-[2-(1-methyl-1H-1,3-benzodiazol-2-yl)piperidin-1-yl]prop-2-en-1-one], the figure is 107.619%; as for `CC(Cl)C(=O)NCc1csc(-c2ccco2)n1` (centres unmarked) [7-K05, 2-chloro-N-{[2-(furan-2-yl)-1,3-thiazol-4-yl]methyl}propanamide], 93.8776%.

Consider `CC(Cl)C(=O)N(C)Cc1ccnn1C` (centres unmarked) [5-L17, 2-chloro-N-methyl-N-[(1-methyl-1H-pyrazol-5-yl)methyl]propanamide], for which the “% of control remaining” value is 119.49%. The value for `N#CC(=Cc1cc(F)ccc1F)C(=O)Nc1ccc(F)cc1` [8-E10, 2-cyano-3-(2,5-difluorophenyl)-N-(4-fluorophenyl)prop-2-enamide] was 122.158%; that for `Cc1nn(CC(C)C)c(Cl)c1C1CCCN1C(=O)CCl` (centres unmarked) [5-L13, 2-chloro-1-{2-[5-chloro-3-methyl-1-(2-methylpropyl)-1H-pyrazol-4-yl]pyrrolidin-1-yl}ethan-1-one] was 83.0601%. The value for `CC(Cl)C(=O)Nc1ccccc1F` (centres unmarked) [5-L10, 2-chloro-N-(2-fluorophenyl)propanamide] was 117.304%; that for `N#CCCN(C(=O)CCl)c1ccccc1F` [5-P07, 2-chloro-N-(2-cyanoethyl)-N-(2-fluorophenyl)acetamide] was 109.29%; that for `Cc1cc(C=C(C#N)C(=O)N2CC[C@H](O)C2)c(C)n1CC1CCCO1` (stereo partly drawn) [9-P04, 3-{2,5-dimethyl-1-[(oxolan-2-yl)methyl]-1H-pyrrol-3-yl}-2-[(3S)-3-hydroxypyrrolidine-1-carbonyl]prop-2-enenitrile] was 100.674%. The value for `O=C(CCl)NC1C=C(c2ccc(Cl)cc2)CCC1` (centres unmarked) [7-P08, 2-chloro-N-[3-(4-chlorophenyl)cyclohex-2-en-1-yl]acetamide] was 75.0392%; that for `CC(Cl)C(=O)NCc1nnc(-c2ccncc2F)s1` (centres unmarked) [7-K18, 2-chloro-N-{[5-(3-fluoropyridin-4-yl)-1,3,4-thiadiazol-2-yl]methyl}propanamide] was 102.355%; that for `CCn1nc(C)c(CN(C)C(=O)CCl)c1C` [5-A10, 2-chloro-N-[(1-ethyl-3,5-dimethyl-1H-pyrazol-4-yl)methyl]-N-methylacetamide] was 92.5319%. For the molecule `CCn1ncc(C(=O)CCl)n1` [10-E13, 2-chloro-1-(2-ethyl-2H-1,2,3-triazol-4-yl)ethan-1-one], the “% of control remaining” value turned out to be 103.125%.
